Experimental findings from PubChem BioAssay AID485344 (National Center for Advancing Translational Sciences (NCATS), 2010) are described below.

The whole screen tested about 340,000 compounds, of which about 6,900 (2%) were called active. Rule as the data show it: active = inhibition above about 30%; inactive = below that, where a call was filed. This is a selection; strong and weak results do not stand in their true shares. Entries without a call were filed so in the source.

Chain of UniProt P14416 (P14416 whole entry, looked up): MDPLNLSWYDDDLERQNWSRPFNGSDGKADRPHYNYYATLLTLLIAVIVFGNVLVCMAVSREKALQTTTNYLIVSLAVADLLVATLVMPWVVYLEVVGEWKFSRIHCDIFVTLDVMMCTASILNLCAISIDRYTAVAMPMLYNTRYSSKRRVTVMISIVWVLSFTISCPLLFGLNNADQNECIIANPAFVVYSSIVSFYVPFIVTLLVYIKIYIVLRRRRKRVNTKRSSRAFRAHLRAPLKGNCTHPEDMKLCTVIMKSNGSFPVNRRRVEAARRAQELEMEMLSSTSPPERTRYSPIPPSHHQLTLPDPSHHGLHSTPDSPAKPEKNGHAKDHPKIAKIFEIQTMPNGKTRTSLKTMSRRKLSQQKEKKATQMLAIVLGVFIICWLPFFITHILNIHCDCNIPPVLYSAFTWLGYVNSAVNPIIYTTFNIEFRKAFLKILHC

The experiment has as its target D(2) dopamine receptor (Homo sapiens) (UniProt P14416). In words: HTS Assay for Allosteric Antagonists of the Human D2 Dopamine Receptor: Primary Screen for Antagonists. Also: 0% is about no effect. The settings on record: HEK293 TREx D2 cells, calcium flux, dopamine EC80; at 10 µM; stronger effect = higher value. In short, it runs like this:
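Calcium flux kinetic readout in an inducible HEK293 TREx D2 line plated overnight at 30 C. After 180 s compound exposure, an EC80 dopamine challenge follows with another 180 s kinetic read to detect antagonism.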
Background: A change in cytosolic calcium serves as a functional read-out for many receptors and channels.
In general, inhibition refers to the drop in the measured response relative to a control, in per cent. For the compound `CN(C)c1ccc(CNC(=O)CN(C)S(=O)(=O)c2ccc3c(c2)c(=O)n(C)c(=O)n3C)cc1`, the inhibition is 21.6%.

On to `Cc1ccc(CNC(=O)Cn2ccn(-c3ccc(C)c(C)c3)c(=O)c2=O)cc1`, for which the inhibition is -5.8%.

On to `Cc1ccc(-n2nc3c(N4CCCC(C(=O)NCCc5ccccc5)C4)nnc(C)c3c2C)cc1` (stereo not given), for which the inhibition was -20.2%.

As to `COc1cccc(C(=O)Nc2c(C(=O)NC(C)(C)C)oc3ccccc23)c1`, the inhibition is -3.89%.

On to `Cc1ccc(CCNC(=O)Cn2c(-c3cccs3)cc3cc(F)ccc32)cc1`, for which the inhibition is -14.3%.

For `CCC1CCCCN1CCCNC(=O)CN1C(=O)CSc2ccc(S(=O)(=O)N3CCC(C)CC3)cc21` (stereo not given), the inhibition is -12.2%.

On to `Cc1cc(C)c2oc(-c3cccc(NC(=O)c4ccco4)c3)nc2c1`, for which the inhibition was -5.43%.

`COCCCNC(=O)CCC(=O)N1Cc2ccccc2Oc2ncccc21`: the inhibition is 8.06%.

Take `Cc1cc2c(c3oc(=O)c4ccccc4c13)CN(Cc1ccc(F)cc1)CO2`: the inhibition worked out at 4.19%.

As for `O=C(Nc1cccc(Cl)c1)Nc1ccccc1OCc1cc(=O)n2ccccc2n1`, the inhibition was 14.5%.

Regarding `NC(N)=N/N=C/c1ccc(OS(=O)(=O)c2ccccc2)cc1`, the inhibition was active: 30.2%.

Regarding `CCOc1ccccc1NC(=O)c1sc(-n2nc(C)c(CCC(C)C)c2C)nc1C`, the inhibition came out at 4.07%.

Take `Cc1ccc(Cl)cc1N1CCN(C(=O)c2ccc3c(c2)N(Cc2ccccc2F)C(=O)c2ccccc2S3(=O)=O)CC1`: the inhibition was determined as 1.79%.

With `Cc1nc2c(C(=O)N(C)Cc3ccccc3)c[nH]n2c(=O)c1Cc1ccc(Cl)cc1`, the inhibition was 13.5%.

For the compound `CCc1ccc(S(=O)(=O)Nc2ccc(-c3ccc(N4CCCCCC4)nn3)cc2)cc1`, the inhibition came to 5.97%.

With `O=C(NCc1ccccc1)c1nc(-c2cccs2)no1`, the inhibition was active: 36.3%.

Take `CC(=O)C1=C(c2ccc(Cl)c(Cl)c2)N(C(C)=O)n2c(C)nnc2S1`: the inhibition stood at 24.9%.

Consider `CCS(=O)(=O)N1Cc2ccccc2CC1C(=O)Nc1cccc(OC)c1` (stereo not given), for which the inhibition is active: 34.4%.

`CCCSCCCNC(=O)CN1C(=O)COc2ccc(S(=O)(=O)N3CCC(C)CC3)cc21`: the inhibition is 4.6%.

Turning to `Cc1cccc(C)c1NC(=O)c1oc2c(c1C)-c1nn(Cc3ccccc3)cc1CC2`, the inhibition was -2.91%.

Regarding `CCN(CC)CCCNC(=O)Cn1nc(N2CCN(c3ccccc3OC)CC2)ccc1=O`, the inhibition was 5.9%.

With `CN1C(=O)Cc2cc(S(=O)(=O)CCC(=O)Nc3ccccc3)ccc21`, the inhibition was determined as 1.3%.

As for `COc1cc(OC)c(N(C)C(=O)c2nn(C)c3c2CSc2ccccc2-3)cc1Cl`, the inhibition stood at 17.6%.

As for `COc1cccc(CNC(=O)c2cc(-c3cccc(OC)c3)n[nH]2)c1`, the inhibition worked out at 4.83%.

Take `COc1cc(C(=O)Nc2cc(S(C)(=O)=O)ccc2Cl)ccc1OCC(=O)N1CCOCC1`: the inhibition was active: 35.6%.

`Cc1ccc(N2CCN(C(=O)CCc3c(C)nc4c(c3C)c(=O)n(C)c(=O)n4C)CC2)c(C)c1`: the inhibition is -13.9%.

For `O=C(CCn1cnc2ccccc2c1=O)NCc1ccccc1`, the inhibition is -14.7%.

`CCOc1ccc(N(C)S(=O)(=O)c2c(C(=O)N3CCC(C)CC3)c(C)n(C)c2C)cc1`: the inhibition is -1.1%.

With `COc1ccc(Cl)cc1NS(=O)(=O)c1cccc(C(=O)NCC(c2ccco2)N(C)C)c1` (stereo not given), the inhibition is active: 60.4%.

On to `Cc1cccc(-n2ncc(C(=O)N3CCN(Cc4ccccc4)CC3)c2C2CCN(C(=O)OC(C)(C)C)CC2)c1`, for which the inhibition came to 6.3%.

As to `Cc1ccc(NC(=O)Cn2nnc3sc4c(c3c2=O)CCC(C)C4)cc1` (stereo not given), the inhibition was -0.363%.

For `COc1ccc(Cn2c(CCC(=O)Nc3ccc(C)cc3)nc3cccnc32)cc1`, the inhibition is 23.6%.

In the case of `CCOc1ccccc1NC(=O)N1c2ccccc2Sc2ccccc21`, the inhibition is -9.86%.

Consider `Cc1cc(C)n(-c2nc3cc(Cl)ccc3nc2Nc2ccc(C)c(F)c2)n1`, for which the inhibition is -3.09%.

Regarding `O=C1c2ccccc2C(O)N1Cc1cccs1` (stereo not given), the inhibition was active: 46.8%.

For the compound `CCn1ccc2cc(S(=O)(=O)N3CCC(C(=O)NCc4cccc(Cl)c4)CC3)ccc21`, the inhibition was 12.4%.

For the compound `CC(C)(C)c1ccc(OC(=O)N2CCOCC2)cc1`, the inhibition is active: 31.9%.

In the case of `Cc1cc(C)c(NC(=O)c2cc(S(=O)(=O)NCCC3=CCCCC3)ccc2F)c(C)c1`, the inhibition is -10.9%.

Regarding `Cc1ccc(-n2ncc(C(=O)NCCN3CCCC3)c2C2CCN(C(=O)OC(C)(C)C)CC2)cc1`, the inhibition came out at 11.5%.

Turning to `Cc1cccc(OCCCN2CCCCCC2)c1`, the inhibition was active: 40.3%.

With `CCn1c(SCc2cccc(Br)c2)nnc1-c1nonc1NC(C)=O`, the inhibition is -9.01%.

For the compound `CC(C)CNC(=O)C(=O)Nc1c2c(nn1-c1ccccc1)CS(=O)(=O)C2`, the inhibition came to 5.67%.

As for `CC(=O)Nc1cc(C(=O)NCc2ccc(C)cc2)ccc1S(=O)(=O)c1ccc(Cl)cc1`, the inhibition is 25.6%.

For the compound `CCOC(=O)CN1C(C(=O)c2ccccc2)=C(OC(=O)C(C)(C)C)c2ccccc2S1(=O)=O`, the inhibition was -14.9%.

Take `CSc1cccc(NC(=O)Cn2c(=O)n(Cc3ccccc3)c(=O)c3sc4ccccc4c32)c1`: the inhibition was -8.33%.

Take `COCCCn1c(=N)c(C(=O)NCc2ccco2)cc2c(=O)n3cccc(C)c3nc21`: the inhibition was 1.58%.

For the compound `CCOC(=O)c1c(NC(=O)COc2ccc(Br)cc2)sc2c1CCCC2`, the inhibition is -3.55%.

With `CCc1ccccc1NC(=O)Nc1cc(C(=O)NCc2cccc(F)c2)ccc1N1CCCC1`, the inhibition stood at 1.05%.

With `CCc1ccc(S(=O)(=O)c2nnn3c2nc(Nc2ccc(C)c(Cl)c2)c2sccc23)cc1`, the inhibition is -13.3%.

In the case of `O=C(Cn1ncn2nc(-c3cccs3)cc2c1=O)NCc1ccc(Cl)cc1`, the inhibition was determined as 20.1%.

As for `Cc1oc(-c2cccc(Cl)c2)nc1CN1CCCC(C(=O)NCCc2ccc(Cl)cc2)C1` (stereo not given), the inhibition was determined as 10.2%.

For the compound `COCCNC(=O)CCn1c(=O)c2cc(OC)c(OC)cc2n(CC(=O)Nc2ccccc2C)c1=O`, the inhibition worked out at 1.26%.

As for `CS(=O)(=O)NCC(c1ccco1)N1CCN(c2ccc(F)cc2)CC1` (stereo not given), the inhibition is -25.1%.

`CCc1ccc(NC(=S)NC2CC3CCCC(C2)N3Cc2cccs2)cc1` (stereo not given): the inhibition is active: 64.5%.

Take `O=S(=O)(c1ccc(-c2cc(C(F)(F)F)on2)s1)N1CCN(c2ccccc2)CC1`: the inhibition was 4.41%.

In the case of `CCOC(=O)c1cnc2c(Cl)cc(Cl)cc2c1Nc1cc(C(=O)O)ccc1C`, the inhibition amounted to 1.1%.

In the case of `Cc1cccc(NC(=O)c2ccc3c(O)c(S(=O)(=O)c4ccccc4)c(=O)[nH]c3c2)c1C`, the inhibition was -1.27%.

Consider `COc1ccc(C(=O)C(C)OC(=O)c2sc(C)nc2C)cc1` (stereo not given), for which the inhibition was active: 31%.

As to `COc1ccc(Cl)cc1NC(=O)CSc1nc2ccccc2c2nc(-c3ccccc3)nn12`, the inhibition was -4.49%.

Take `O=C(Nc1ccc2nc(SCC(=O)N3CCc4ccccc43)sc2c1)c1cccc(F)c1`: the inhibition stood at 14.4%.

As for `Cc1ccccc1-c1nc(CS(=O)(=O)CC(=O)NCCc2ccccc2)c(C)o1`, the inhibition was -8.69%.

Regarding `Cc1ccc(C(=O)N2CCc3cc(CNC(=O)c4ccc(Br)cc4)ccc32)cc1`, the inhibition was -0.356%.

On to `Cc1ccc(C(=O)Nc2ccccc2)cc1S(=O)(=O)Nc1ccc(Br)cc1`, for which the inhibition was determined as 8.62%.

Consider `CCOc1ccc2c(c1)sc1nc(=O)n(-c3ccc(Cl)c(Cl)c3)c(=O)n12`, for which the inhibition was -7%.

Consider `Cc1ccc(OCc2nc(-c3ccc(C(=O)N4CCN(c5cccc(C(F)(F)F)c5)CC4)cc3)oc2C)cc1`, for which the inhibition is -1.32%.

On to `CCOC(=O)CCn1cnc2onc(-c3cc(OC)ccc3Cl)c2c1=O`, for which the inhibition is -10.3%.

Regarding `COc1ccc(N(CC(C)C)S(=O)(=O)c2nnc(NC(=O)c3cccs3)s2)cc1`, the inhibition was -2.84%.

For the compound `CSc1cccc(NC(=O)C2CCN(S(=O)(=O)c3ccc4c(c3)CCCN4C(=O)C3CCC3)CC2)c1`, the inhibition was determined as 15.5%.

As for `Cc1c(Cl)cccc1NC(=O)CNS(=O)(=O)c1cccs1`, the inhibition turned out to be 1.48%.

For the compound `Cc1ccc(C2CCN(C(=O)Nc3ccc(Cl)cc3)C2)cc1` (stereo not given), the inhibition was 10.3%.

As for `Cc1cc(=O)[nH]c2nnc(SCc3c(F)cccc3Cl)n12`, the inhibition was determined as 24.5%.

`CCc1ccc(C2c3c(oc4ccc(F)cc4c3=O)C(=O)N2CCc2ccc(OC)cc2)cc1` (stereo not given): the inhibition was -0.345%.

As to `COc1ccc(S(=O)(=O)NCCc2sc(-c3cccnc3)nc2C)c(F)c1`, the inhibition was -21.7%.

For the compound `CC1CCc2c(sc3nnn(CCCCOc4ccc(Cl)cc4)c(=O)c23)C1` (stereo not given), the inhibition is 5.23%.

Regarding `COc1ccc(CNCCCSc2nnnn2-c2ccccc2)cc1`, the inhibition was -22.6%.

As to `COc1ccc(-c2cc(C(=O)NC(C)c3ccccc3)c3cc(C(C)C)ccc3n2)cc1` (stereo not given), the inhibition was -4.52%.

On to `CCOC(=O)c1c(NC(=O)c2cc(OCC)c(OCC)c(OCC)c2)sc2c1CCCCC2`, for which the inhibition worked out at 17.6%.

`O=C(Nc1ccccc1C(F)(F)F)c1cc(-c2ccc3c(c2)OCCO3)on1`: the inhibition is -9.55%.

As for `CCN(CC)CCNC(=O)C(=O)NCC(c1cccnc1)N1CCN(c2ccc(F)cc2)CC1` (stereo not given), the inhibition was 17.5%.

Consider `COc1cccc(CNC(=O)c2ccc(CNS(=O)(=O)c3ccc(C)cc3)cc2)c1`, for which the inhibition is 9.97%.

On to `O=C(Nc1ccccc1)N(Cc1c[nH]c2ccccc12)C1CCCCCC1`, for which the inhibition was determined as 3.3%.

Consider `Cc1cccc(OCc2nc(CC(=O)Nc3ccc(C)cc3C)cs2)c1`, for which the inhibition is -8.91%.

Turning to `CC1CCN(S(=O)(=O)c2cc(C(=O)NC3(C)CCS(=O)(=O)C3)ccc2Br)CC1` (stereo not given), the inhibition was active: 30.5%.

For `Cc1cccc(N2CCN(C(=O)c3cnn(-c4ccccc4Cl)c3C3CCN(C(=O)OC(C)(C)C)CC3)CC2C)c1` (stereo not given), the inhibition came to 1.95%.

Take `CCOC(=O)c1c(S(=O)(=O)N2CCCC(C(=O)NCc3ccccc3Cl)C2)c(C)n(C)c1C` (stereo not given): the inhibition is -6.74%.

Regarding `CC(=O)Nc1cc2c(cc1C(=O)c1ccc(C)cc1)OCCO2`, the inhibition is active: 33.5%.

As to `COc1cc(NC(=O)C2CCN(S(=O)(=O)c3ccc4c(c3)CCCC(=O)N4)CC2)cc(OC)c1`, the inhibition is -8.21%.

As to `CCOc1ccccc1NC(=O)CSc1nc2c(sc3ccccc32)c(=O)n1CCCC(=O)NC1CCCC1`, the inhibition is -21.6%.

On to `COc1ccc2cc3cc(C(=O)Nc4cc(C)c(Cl)cc4OC)oc3nc2c1`, for which the inhibition amounted to 5.46%.

For the compound `CCc1cccc(CC)c1NC(=O)C1CCC(CNS(=O)(=O)c2cccc3nsnc23)CC1` (stereo not given), the inhibition worked out at 8.76%.

Consider `COc1ccc(NC(=O)CSc2oc(-c3ccc(F)cc3)nc2S(=O)(=O)c2ccc(C)cc2)c(OC)c1`, for which the inhibition was -2.76%.

`CC(=O)c1cccc(NS(=O)(=O)c2cc(-c3onc(C)c3C)ccc2C)c1`: the inhibition worked out at 0.741%.

For the compound `O=C(NCC(c1cccnc1)N1CCOCC1)c1cccs1` (stereo not given), the inhibition is active: 33.7%.

`CCOC(=O)C1CCN(CCCSc2ccc(Cl)cc2)CC1`: the inhibition was active: 46.1%.

As for `Cn1cc(CNCc2ccc(-n3cccn3)cc2)c(-c2ccccc2F)n1`, the inhibition is active: 44.2%.
